# Results from PMC4336329 (PLoS ONE, 2015).
# Out of some 310,000 compounds screened, about 14,000 (4.5%) showed an effect of 50% or more. Effects have a minus sign here. Some of the results follow.
# Target: human ether-à-go-go-related gene (hERG) potassium channel (human, UniProt Q12809)
# Assay: primary screen, population patch clamp on CHO cells stably expressing hERG
# 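Note: peak tail current of the secondary pulse compared with the same well before compound.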
# human ether-à-go-go-related gene (hERG) potassium channel, sequence (Q12809 whole entry, looked up): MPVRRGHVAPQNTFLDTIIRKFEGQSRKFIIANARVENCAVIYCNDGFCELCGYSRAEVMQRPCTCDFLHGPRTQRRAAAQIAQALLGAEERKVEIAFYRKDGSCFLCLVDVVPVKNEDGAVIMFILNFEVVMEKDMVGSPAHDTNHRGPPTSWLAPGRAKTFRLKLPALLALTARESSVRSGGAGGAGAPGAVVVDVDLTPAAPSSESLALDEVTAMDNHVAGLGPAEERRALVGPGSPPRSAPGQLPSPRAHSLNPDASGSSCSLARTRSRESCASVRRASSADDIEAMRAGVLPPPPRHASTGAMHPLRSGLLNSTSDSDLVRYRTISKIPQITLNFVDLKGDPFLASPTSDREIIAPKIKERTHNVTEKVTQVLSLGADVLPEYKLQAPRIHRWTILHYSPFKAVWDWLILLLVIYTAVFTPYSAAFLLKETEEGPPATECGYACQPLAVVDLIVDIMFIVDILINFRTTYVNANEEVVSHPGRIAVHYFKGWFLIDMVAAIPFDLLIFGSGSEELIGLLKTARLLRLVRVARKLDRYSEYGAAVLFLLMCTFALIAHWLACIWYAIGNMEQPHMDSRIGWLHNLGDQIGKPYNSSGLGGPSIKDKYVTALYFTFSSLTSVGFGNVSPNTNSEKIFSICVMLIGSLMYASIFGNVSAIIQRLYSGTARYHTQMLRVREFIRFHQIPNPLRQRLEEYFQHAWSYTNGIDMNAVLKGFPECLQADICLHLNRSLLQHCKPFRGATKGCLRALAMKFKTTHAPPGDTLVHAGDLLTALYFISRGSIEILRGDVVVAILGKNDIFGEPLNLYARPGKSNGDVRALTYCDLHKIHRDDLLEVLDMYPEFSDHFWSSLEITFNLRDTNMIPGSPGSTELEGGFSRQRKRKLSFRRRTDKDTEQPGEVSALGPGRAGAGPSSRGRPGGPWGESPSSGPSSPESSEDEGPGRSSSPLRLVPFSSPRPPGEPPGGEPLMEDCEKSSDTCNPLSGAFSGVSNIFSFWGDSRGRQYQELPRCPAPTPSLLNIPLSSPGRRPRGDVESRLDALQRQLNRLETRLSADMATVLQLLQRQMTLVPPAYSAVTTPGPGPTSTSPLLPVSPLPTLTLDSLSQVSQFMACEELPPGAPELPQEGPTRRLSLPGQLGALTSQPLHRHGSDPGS
row,SMILES,"hERG current change (%, negative = inhibition) at 10uM [%]"
1,O=C1C2C3CCC(C3)C2C(=O)N1CNc1ccc(F)cc1 (stereo not shown),-2.99
2,O=C(NCC(=O)N1CCCCCC1)c1ccc(Br)cc1,-7.84
3,CCCCS(=O)(=O)Nc1ccc2ncn(C)c(=O)c2c1,-1.78
4,CCCC(=O)NC(=S)Nc1ccc(NC(=O)c2cccs2)cc1,-6.62
5,COc1ccc(-n2c(Cc3cccn3C)nnc2SCC(=O)Nc2ccc3c(c2)OCCO3)cc1,-7.95
6,O=C(N/N=C/c1cccc(Oc2ccccc2)c1)c1ccccc1F,4.39
7,O=C1C=C(NCc2ccccc2)C2(CCCCC2)O1,0.0967
8,CC1(c2ccccc2)NC(=O)N(CC(=O)Nc2ccc3c(c2)OCO3)C1=O (stereo not shown),-2.96
9,N#Cc1c(NCCN)nc(-c2ccccc2)c2c1CCCC2,-35.1
10,CSc1cccc(NC(=O)CN2C(=O)c3ccccc3S2(=O)=O)c1,-29.3
11,Cc1cccc2sc(NC(=O)CCNS(=O)(=O)c3cccc4nonc34)nc12,-1.93
12,CC(=O)Nc1nnc(CSCc2ccccc2F)s1,12.3
13,CC(=O)c1sc(NC(=O)C(C)Oc2ccc3c(C)cc(=O)oc3c2)nc1C (stereo not shown),13.6
14,Cc1cc([N+](=O)[O-])ccc1NC(=O)C[n+]1ccc(N(C)C)cc1.[Cl-],-7.98
15,CN(C)CCCN1C(=O)C(O)=C(C(=O)c2cc3ccccc3o2)C1c1ccccc1 (stereo not shown),2.75
16,Cc1nn(-c2ccccc2)c(Oc2ccc(F)cc2)c1/C=N/n1cnnc1,-31.5
17,CC(=O)Nc1ccc(S(=O)(=O)NC(C)c2ccccc2)cc1 (stereo not shown),13.2
18,Cc1ccnc(N=Cc2c(O)ccc3oc4c(c23)CCCC4)c1,0.567
19,O=C(CNC(=O)c1ccco1)OCC(=O)c1ccccc1Cl,0.293
20,COC(=O)N1CCc2c(sc(NC(=O)C3=COCCO3)c2C#N)C1,2.52
21,CC(C)Cn1c(-c2ccco2)nc2c(c(=O)c3ccccc3n2C)c1=O,-59.3
22,CCOc1ccccc1C(=O)Nc1cc(=O)n(C)c(=O)n1C,4.38
23,CCOc1ccc(-n2c(C)cc(C(=O)CCl)c2C)cc1,-11.9
24,N#Cc1c(-c2ccccc2F)cc(C2CC2)nc1SCC(=O)c1cccs1,33.9
25,COc1ccc(NC(=O)/C(=C\c2ccc(OS(=O)(=O)c3ccc(C)cc3)cc2)NC(=O)c2ccccc2)cc1,17.1
26,O=C1c2ccccc2C(=O)N1OCc1ccccc1[N+](=O)[O-],23.7
27,CC(C)C[C@@]12C(=O)N(c3cccc(Cl)c3)C(=O)N1[C@H](c1ccc(F)cc1)[C@@H]1C(=O)N(C3CCCCC3)C(=O)[C@@H]12,4.21
28,CCN(CC)C(=S)SC1=CCS(=O)(=O)C1,5.09

row,SMILES,"hERG current change (%, negative = inhibition) at 10uM [%]"
1,Cc1cc(=O)oc(C)c1C(=O)N1CCN(c2ccc(F)cc2)CC1,5.27
2,Cc1oncc1C(=O)Nc1cccc(C#N)c1,4.43
3,CCOC(=O)/C(C#N)=C\c1ccc(N2CCN(C)CC2)cc1,-38.2
4,COCCNC(=S)N(CCc1c(C)[nH]c2ccc(OC)cc12)Cc1ccco1,-12.4
5,CN(c1nc(-c2ccc(Br)cc2)cs1)C1CCS(=O)(=O)C1 (stereo not shown),1.16
6,CCc1cc(=O)oc2c(C)c(OCC(=O)NCCN3CCOCC3)ccc12,-0.348
7,Cc1ccc(N(C)S(=O)(=O)c2cccc(C(=O)Nc3nnc(C4CC4)s3)c2)cc1,15.9
8,N#Cc1c(N)nc(Sc2ccc(Cl)cc2)c(C#N)c1-c1ccccc1Cl,6.26
9,Cc1ccccc1Nc1c([N+](=O)[O-])ccc2nonc12,-3.58
10,Br.COc1ccc(C(=O)CN2Cc3ccccc3C2=N)cc1,-42.3
11,C/C(=N\NC(=O)c1ccco1)c1ccc(NC(=O)c2ccccc2)cc1,1.17
12,O=C(NCN1CCCCC1)c1cnccn1,-4.52
13,COC(=O)c1ccc(CSc2nnc(-c3ccncc3)n2Cc2ccccc2)o1,-12.7
14,CCC(=O)c1cc2c(cc1NC(=O)c1cccs1)OCCO2,1.86
15,O=C(Nc1ccc(F)c(F)c1)C1CCCN(S(=O)(=O)c2cnc[nH]2)C1 (stereo not shown),-9.69
16,CC(C)(C)N(CC(=O)NC1CCCCC1)C(=O)CS(=O)CC(=O)Nc1ccc(F)cc1 (stereo not shown),9.23
17,COc1ccc(-n2c(=O)c3ccccc3n(CC(=O)NC3CCCC3)c2=O)c(OC)c1,-0.373
18,COc1cccc(N2CCN(S(=O)(=O)c3c(C)[nH]c(C)c3C(=O)N3CCCC3)CC2)c1,9.06
19,CCN1CCN(CCNC(=O)c2ccc(CS(=O)c3ccc(Cl)cc3)o2)CC1 (stereo not shown),18
20,COc1ccc(S(=O)(=O)N2CCOC23CCN(S(=O)(=O)c2ccc(F)cc2)CC3)cc1,-13.8
21,O=C(NC1CCCC1)C(c1cccs1)N(C(=O)c1ccno1)c1ccccc1 (stereo not shown),13.2
22,CCN(CC(=O)Nc1ccccc1OC)C(=O)c1ccc(NC(=O)c2cccs2)cc1,-2.28
23,CC1(c2ccccc2)NC(=O)N(CC(=O)Nc2ccc(Cl)c(S(=O)(=O)N3CCCCC3)c2)C1=O (stereo not shown),-8.09
24,CCc1nc(-c2ccccc2)c2ccccn12.O=C(O)C(=O)O,-11.2
25,O=C(NCC1CCCO1)c1ccc(NC(=O)c2cccc(Cl)c2)cc1 (stereo not shown),1.14
26,CCOC(=O)c1sc(=S)n(C)c1NC(=O)c1ccccc1Cl,16.5
27,COc1cccc(OC)c1C(=O)Nn1c(-c2cccc(C)c2)nc2ccccc2c1=O,11.1
